Experimental data taken from the supplement of paper PMC10126150.
Sequences with one replicate were seen in a single cluster, so their values are uncertain.

Tested on: ATP
Assay: switch fluorescence ratio, 500 uM ATP over buffer (Cy3 cluster intensity, sum of 5 cycles each) (fold (ratio)); higher = stronger signal-on switching upon ATP binding; sequences stand for … in TCGTCGGCAGCGTCAGATGTGTATAAGAGACAGTTTTTTTTTTTTTTTTTTTTTTTTT…TC
Conditions: aptamer strand: ATP DNA aptamer (quencher-CACCTGGGGGAGTATTGCGGAGGAAGG + anchor), 100 nM annealed; ATP concentration: 500 uM; one replicate
Procedure, shortened: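 Values give the fluorescence ratio for each switch-domain sequence, averaged from per-cluster ratios of summed target-cycle to summed buffer-cycle Cy3 intensity. The Cy3-labelled switching-strand clusters sat on a modified Illumina MiSeq flow-cell, were annealed to 100 nM quencher-labelled ATP aptamer, and were imaged in selection buffer, then after 15 min with 500 uM ATP at 22 °C. Five cycles ran with NaOH stripping and re-annealing between them, and clusters outside 100-1000 RFU were excluded.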
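Note: ATP exposure 15 min at 22 °C before imaging.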

| Sequence | switch fluorescence ratio |
| --- | --- |
| AATACACTCT | 1.05 |
| AACTAATGC | 1.06 |
| TCTACCTATC | 1.04 |
| AGCGCGGTTA | 0.951 |
| TACCCAGCAG | 1.06 |
| CAAAGAAGGC | 1.06 |
| TCGCACTGTA | 0.986 |
| TGTCGACAAA | 1.11 |
| GGGAAGAAGA | 1.02 |
| TACAGGGGAG | 1.02 |
| AGTCTGGTTT | 0.963 |
| TTGTTTACAA | 1.06 |
| AGGCCCGGAT | 0.97 |
| TTATCAAATT | 0.998 |
| ACAAGGTTAG | 0.924 |
| GGATGTATCA | 0.951 |
| AATTGAGGG | 1.01 |
| ACCAGCCAGT | 1.06 |
| AGCCGCCGGC | 1.04 |
| CGTTCTATGA | 0.981 |
| AGCACATGAC | 1.73 |
| AACTGGAGAG | 0.983 |
| CCAGAAGTGC | 1.39 |
| GATTCAGATC | 1 |
| ACGGCTGACT | 0.992 |
| GTAGGAACCA | 1.02 |

| Sequence | switch fluorescence ratio |
| --- | --- |
| GCCTTTCGTG | 1.08 |
| ACGCTAAGTC | 1.09 |
| CCATGATGCG | 1.1 |
| CCAATCACAT | 1.02 |
| TAGGTGTATC | 1.05 |
| CTGTATGCTT | 1.02 |
| CTGGTGGCTA | 0.978 |
| GGTGCACGTG | 1.03 |
| TTTGTGAAGG | 1.02 |
| AGCCCCGAAC | 2.72 |
| ATACCAGCTG | 1.03 |
| CGGTCCATTT | 0.965 |
| GTAGGGCTTA | 1.01 |
| TTTACACGCA | 1.14 |
| CTCCGTGAAA | 3.31 |
| AAGACACCAC | 1.21 |
| CACGAACACA | 1.64 |
| GAGTTGCGCT | 1.02 |
| ATTTCGGAAA | 0.999 |
| CCGAAAGAGG | 1.03 |
| CAAGGCCCGC | 1.02 |
| AACGGGACTG | 0.978 |
| TGGCGACGCG | 1 |
| CCACAGCGTT | 1.75 |
| AGAAGAATTA | 1.02 |
| TTACGAGAAC | 1.53 |

| Sequence | switch fluorescence ratio |
| --- | --- |
| GGCCCCATTA | 2.54 |
| AGCCTGCAGA | 1.07 |
| GATCATATT | 1.01 |
| CATGTGAGGG | 0.974 |
| CTTAATTA | 0.968 |
| ATAAATGGGA | 0.976 |
| CAGATTGGAG | 0.991 |
| GAGTCAAATA | 0.989 |
| TCGGACTGTC | 0.976 |
| AATCGGCTTA | 1.06 |
| ATGAATGCCA | 0.963 |
| TGTGCTCG | 1.01 |
| ATCATACGGT | 1.03 |
| ATGTGATACT | 1.07 |
| GGCTCATAT | 0.964 |
| GCATAGTTG | 1.02 |
| AAGGCTTTCA | 1.02 |
| AAGCAGGACT | 1.36 |
| TTCTGTAGAT | 0.993 |
| TAAGCGTACC | 1.09 |
| GGTGTGTTGG | 1.01 |
| TCTTCCGGGT | 1.09 |
| CCCCGCCTCG | 1.83 |
| GACAAGACGA | 1.31 |
| ATGAGTGGG | 1.02 |
| GAGGACGGGT | 1.07 |

| Sequence | switch fluorescence ratio |
| --- | --- |
| ACTCGTCCAC | 1.08 |
| GCTTTGGACT | 1.02 |
| AGATGCCCCG | 1.04 |
| AGATGTCTGT | 0.999 |
| GAGGCCGTAT | 1.06 |
| TTTAACCCCG | 1.01 |
| ATTGACTAGC | 1.02 |
| CTAAGGATAG | 0.974 |
| AGCATTGCCA | 0.998 |
| GAGGACTGGG | 1.04 |
| TCAGCACGCA | 1.5 |
| TAGAAAGCG | 1.02 |
| CTAAAACAC | 1.07 |
| CCGCATTCCA | 3.42 |
| GGCGACCTTC | 1.06 |
| CGAAATAAGT | 0.991 |
| TTAAAATTAG | 1.01 |
| TACCTTTGTC | 1 |
| TTCTGTATCG | 1.02 |
| GGTAGGCGC | 0.991 |
| CCCCTTCTCG | 1.28 |
| TCTGTATGGA | 0.954 |
| TCAGCTGCG | 0.941 |
